Measured values: PMC4336329 (PLoS ONE, 2015)
Among all 310,000 compounds or so, about 14,000 (4.5%) showed an effect of 50% or more. Effects have a minus sign here. The list shows a part of the results.

Each compound was assayed against human ether-à-go-go-related gene (hERG) potassium channel (human, UniProt Q12809) (assay: primary screen, population patch clamp on CHO cells stably expressing hERG).
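Note: peak tail current of the secondary pulse compared with the same well before compound.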

human ether-à-go-go-related gene (hERG) potassium channel, sequence (Q12809 whole entry, looked up): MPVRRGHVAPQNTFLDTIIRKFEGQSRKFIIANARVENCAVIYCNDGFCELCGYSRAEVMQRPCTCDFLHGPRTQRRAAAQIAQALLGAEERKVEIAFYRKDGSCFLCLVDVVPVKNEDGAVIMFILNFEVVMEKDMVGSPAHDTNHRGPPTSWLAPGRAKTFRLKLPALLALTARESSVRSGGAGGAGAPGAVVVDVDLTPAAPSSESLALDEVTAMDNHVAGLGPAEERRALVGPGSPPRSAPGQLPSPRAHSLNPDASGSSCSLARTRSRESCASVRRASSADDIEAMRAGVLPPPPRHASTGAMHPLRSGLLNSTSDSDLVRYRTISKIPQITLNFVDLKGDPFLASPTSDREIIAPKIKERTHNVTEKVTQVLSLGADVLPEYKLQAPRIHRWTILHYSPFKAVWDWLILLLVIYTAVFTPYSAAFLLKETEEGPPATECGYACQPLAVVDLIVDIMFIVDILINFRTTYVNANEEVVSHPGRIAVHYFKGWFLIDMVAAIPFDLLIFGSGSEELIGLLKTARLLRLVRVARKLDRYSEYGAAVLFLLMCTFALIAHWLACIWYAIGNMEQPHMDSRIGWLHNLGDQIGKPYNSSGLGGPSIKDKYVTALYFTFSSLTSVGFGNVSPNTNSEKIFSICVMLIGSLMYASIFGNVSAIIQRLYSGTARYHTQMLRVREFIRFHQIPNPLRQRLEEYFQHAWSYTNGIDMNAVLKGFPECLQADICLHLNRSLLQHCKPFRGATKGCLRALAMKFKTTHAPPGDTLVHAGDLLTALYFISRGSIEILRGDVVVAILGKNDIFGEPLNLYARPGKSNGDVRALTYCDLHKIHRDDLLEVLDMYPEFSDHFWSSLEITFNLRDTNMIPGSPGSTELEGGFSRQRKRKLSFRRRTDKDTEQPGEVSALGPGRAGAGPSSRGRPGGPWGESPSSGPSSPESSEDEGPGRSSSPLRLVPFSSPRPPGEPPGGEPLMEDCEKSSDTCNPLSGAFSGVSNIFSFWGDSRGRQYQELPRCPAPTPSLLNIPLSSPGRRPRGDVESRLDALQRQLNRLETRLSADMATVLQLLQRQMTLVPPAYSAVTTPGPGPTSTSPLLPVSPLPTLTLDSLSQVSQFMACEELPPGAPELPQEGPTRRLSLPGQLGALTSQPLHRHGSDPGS

In order of rising “hERG current change (%, negative = inhibition) at 10uM” value:
1. COc1nnc(-c2ccc(N3CCOCC3)c(NC(=O)c3ccco3)c2)c2ccccc12  -70%
2. CC(OC(=O)CCN1C(=O)c2cccc([N+](=O)[O-])c2C1=O)C(=O)Nc1cc(Cl)cc(Cl)c1 (centres unmarked)  -68.6%
3. Cc1cc2nc3n(c2cc1C)CC1CC(C(=O)NCc2cccc(C(F)(F)F)c2)N(C)C31 (centres unmarked)  -66.7%
4. Cc1sc2ncnc(N3CCC(C(=O)N(C)CC(=O)Nc4ccccc4Br)CC3)c2c1C  -65.8%
5. CCOC(=O)C1(CCOc2ccccc2)CCN(C(C)CSC)CC1 (centres unmarked)  -55.3%
6. CN(C)C(=S)SCC(=O)Nc1cccc(C(F)(F)F)c1  -54.6%
7. CC(=O)c1ccc(S(=O)(=O)N2CCC(c3nc4ccccc4[nH]3)CC2)cc1  -54.3%
8. COCCNCCCCSc1ccc(Cl)cc1  -50.8%
9. COc1ccccc1CNc1ccc(N2CCCCC2)cc1  -41.7%
10. COc1ccc(CN2CCCC(C(=O)N3CCCC3)C2)cc1.O=C(O)C(=O)O (centres unmarked)  -41.2%
11. Cc1ccc(S(=O)(=O)N(C)C)cc1NC(=O)c1ccc(-n2cncn2)c([N+](=O)[O-])c1  -38.8%
12. C=CCn1c(CSCc2ccc(Cl)cc2)nnc1SCC(=O)NCc1ccccc1  -38.5%
13. Cc1ccc(-c2cc(C(=O)N(C)Cc3cnn(C)c3C)c3cc(Br)ccc3n2)cc1  -36.9%
14. Cc1ccc(CCNC(=O)C(C)n2nc(C)c3c(C)n(-c4ccccc4)nc3c2=O)cc1 (centres unmarked)  -36.3%
15. COc1cc(NC(=O)c2ccc(Cl)cc2)c(OC)cc1NC(=O)CN1CCCCC1.Cl  -30.1%
16. Nc1nonc1-c1noc(-c2ccccc2Br)n1  -29.8%
17. Cc1cc(NC(=O)C(C)SCC(=O)OCc2ccc([N+](=O)[O-])cc2)no1 (centres unmarked)  -22.2%
18. CCOC(=O)Cn1cc(C(=O)C2CC2)c2ccccc21  -21.7%
19. CCC(=O)c1ccc(N2CCN(C(=O)c3ccccc3F)CC2)c(F)c1  -20.7%
20. O=C(CCNS(=O)(=O)c1cccs1)N1CCN(c2ccc(F)cc2)CC1  -20.7%
21. O=C(CN1CCN(c2ccccn2)CC1)Nc1ccc(Oc2ccccc2)cc1  -11.8%
22. COc1ccc(C(=O)N[C@H](C(=O)OCC(=O)NC(=O)c2cccn2C)C(C)C)cc1  -11.5%
23. Cc1ccc(S(=O)(=O)Nc2cccc(C(=O)NCCCN3CCCC3=O)c2)cc1F  -11.1%
24. O=[N+]([O-])c1ccc2c(c1N1CCCCC1)=NC1(CCCCC1)[N+]=2[O-]  -8.78%
25. CS(=O)(=O)N(Cc1ccccc1)c1ccc(C(=O)NN=C2CCCCCC2)cc1  -7.75%
26. O=C(O)c1ccccc1Nc1ccc([N+](=O)[O-])cc1  -7.2%
27. CCC1(c2ccccc2)NC(=O)N(CC(=O)N(C)Cc2c(F)cccc2Cl)C1=O (centres unmarked)  -6.29%
28. COc1ccc(-c2csc(/C(C#N)=C\c3ccc(OC)c([N+](=O)[O-])c3)n2)cc1  -5.86%
29. Cc1csc(SCC(=O)Nc2ccc(Cl)cn2)n1  -5.15%
30. CCCNC(=S)Nc1cccc(C(F)(F)F)c1  -4.65%
31. Cc1cc(/C=C2/C(=O)NC(=O)N(Cc3ccco3)C2=O)c(C)n1-c1ccccc1O  -2.83%
32. COc1ccc(C(=O)NC(Cn2ccnc2)C(C)(C)C)cc1OC1CCN(C(C)C)CC1 (centres unmarked)  -2.49%
33. O=C(CN1C(=O)NC2(CCOc3ccccc32)C1=O)NCc1ccc(F)cc1 (centres unmarked)  -2.05%
34. COc1cc(/C=N/Nc2nc(Nc3ccccc3)nc(N3CCCCC3)n2)ccc1OCC(=O)O  -1.74%
35. O=C(CCl)N1CCN2C(=O)c3ccccc3C12c1ccc(Cl)cc1 (centres unmarked)  -1.56%
36. O=C(O)CC1c2ccccc2CCN1S(=O)(=O)c1ccccc1 (centres unmarked)  -1.51%
37. O=C(/C=C/Nc1ccc(F)c(Cl)c1)c1ccco1  -0.57%
38. CCCCNC(=O)c1onc(CSc2ccc(OC)cc2)c1C(=O)O  -0.549%
39. Nc1cc(C(=O)OCC(=O)NCCCc2ccccc2)ccc1Cl  0.466%
40. Cc1cc(C)c(NC(=O)C2CSCCS2)c(C)c1 (centres unmarked)  0.768%
41. O=C(COC(=O)/C=C/c1ccccc1)NC(=O)NCc1ccccc1  1.04%
42. Cc1cccc(C(=O)N[C@H](C(=O)NCCc2ccc(Cl)cc2)C(C)C)c1  1.23%
43. CCOC(=O)c1c(C)[nH]c(C(=O)CSc2nnnn2-c2ccc(C)cc2)c1C  1.62%
44. Cc1ccc(S(=O)(=O)C(C#N)c2nc3ccccc3nc2N2CCCC2)cc1C (centres unmarked)  1.95%
45. Cc1n[nH]c(=S)n1/N=C/c1ccccc1OCc1ccc(Cl)cc1Cl  2.18%
46. O=C(COC(=O)/C=C/c1ccc(F)cc1)Nc1nnc(-c2ccccc2)o1  2.39%
47. O=C(Nc1ccccc1)Nc1ccc(C(=O)N2CCCC2)cc1  2.45%
48. Cc1cc2nc(-c3ccc(SCC(=O)N4CCN(C(=O)c5ccco5)CC4)nc3)[nH]c2cc1C  2.64%
49. CCSc1nc(O)c(C2OC(=O)c3c2ccc(OC)c3OC)c(=O)n1CC (centres unmarked)  2.71%
50. Cc1nn(-c2ccccc2)c(N2CCCC2)c1/C=N/NC(=S)Nc1ccc(F)cc1  2.81%
51. CCc1ccccc1N1CN(Cc2cccnc2)CNC1=S  3.35%
52. O=C(CN1C(=O)c2cccc3cccc1c23)Nc1ccc2c(c1)OCO2  3.85%
53. O=C(O)CCN1C(=O)c2ccc(NC(=O)Cc3ccc(Cl)cc3)cc2C1=O  3.94%
54. COc1ccc(C(C(=O)NCC2CCCO2)N(C(=O)CNC(=O)c2cccs2)c2ccc(C)cc2)cc1OC (centres unmarked)  4.2%
55. CCOC(=O)N1CCN(C(=O)C(NC(=O)C2CCC(C)CC2)C(C)C)CC1 (centres unmarked)  4.68%
56. COc1cccc(NC(=O)CCCn2c(=S)[nH]c3ccccc3c2=O)c1  4.72%
57. CC(C)(C)Nc1cccccc1=O  4.91%
58. Cc1c(/C=N/O)c2ccccc2n1C  5.39%
59. CC1(C)Cc2c(sc(NC(=O)c3ccc(C(=O)c4ccccc4)cc3)c2C(N)=O)C(C)(C)N1  5.78%
60. Cc1ccc(S(=O)(=O)Nc2ccccc2C(O)c2ccccc2)cc1 (centres unmarked)  6.43%
61. CC(=O)C1=C(c2ccccc2)NC(=O)NC1c1ccc(O)c(O)c1 (centres unmarked)  6.47%
62. Cc1cc(Cn2nnnc2-c2ccncc2)cc(C)c1O  6.54%
63. CC(C)(CO)NC(=O)CC1C(=O)NCCN1Cc1ccc(-c2ccccc2)cc1 (centres unmarked)  6.61%
64. CCOC(=O)c1c(C)[nH]c(C(=O)OCC(=O)Nc2cc(C)c(Cl)cc2OC)c1C  6.85%
65. Cn1c(=O)c2c(nc(NCc3ccccc3)n2CC(N)=O)n(C)c1=O  7.28%
66. CCCCCCCCN1C(=O)N(C)C(N(O)C(=O)NC)C1(C)C (centres unmarked)  8.37%
67. CN(C)CCCO[C@@H]1[C@H]2OC(C)(C)O[C@H]2O[C@@H]1[C@H](O)CO.Cl  8.76%
68. C=C(C)CNC(=S)N=Nc1c(O)[nH]c2ccc([N+](=O)[O-])cc12  8.96%
69. COc1cccc(COC(=O)C2CCN(S(=O)(=O)c3ccc(C)cc3)CC2)c1OC  9.16%
70. O=C(Nc1ccc2c(c1)oc1ccccc12)C1CC1  11.1%
71. CC1(C)CC(NC(=O)Cc2ccc(Cl)cc2)CC(C)(C)N1  12.7%
72. CCOc1ccc(NC(=O)c2ccc(CNc3c(NC4CCCCC4)c(=O)c3=O)cc2)cc1  13.2%
73. COC(=O)CSc1n[nH]c(=S)s1  13.5%
74. CCc1nnc(NC(=O)CSc2nnc(-c3cccnc3)n2C)s1  13.6%
75. Cc1ccc(CCNC(=O)c2cc(-c3ccncc3)nc3ccc(S(=O)(=O)N4CCOCC4)cc23)cc1  14.2%
76. O=S(=O)(NCCOc1ccccc1F)c1cccc(Br)c1  14.9%
77. O=C(Cc1ccccc1)NCc1n[nH]c(=S)n1-c1ccc(Br)cc1  15.5%
78. Cc1cccc(OCCC(=O)Nc2nnc(C)s2)c1  16.4%
79. COc1cc(C=O)ccc1OCc1ccncc1  16.5%
80. O=C(O)c1ccc(Nc2nc3ccccc3nc2NS(=O)(=O)c2cccs2)cc1  17.6%
81. COc1ccc(NC(=O)CCNC(=O)c2ccco2)cc1OC  18%
82. Cc1ccc(-n2nc(-c3ccccc3)cc2Nc2ccccc2N)cc1  18.9%
83. O=C(O)c1ccc(-n2cc(C(=O)c3ccccc3O)cn2)cc1  19.2%
84. COc1ccc(NC(=O)CCS(=O)(=O)c2ccc3c(c2)NC(=O)C(C)S3)cc1OC (centres unmarked)  21.2%
85. Cn1nccc1NC(=O)Nc1ccccc1  21.8%
86. CC(=O)N(C)C1=C(O)c2ccccc2C(=O)C1=O  22.3%
